Laboratory results taken from the supplement of paper PMC8748497.
This is one part of the list.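 The calls were made as follows: active = fold change of at least 2 over DMSO control; inactive = below 2-fold.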 Repeats are few or missing, and single values can be far off.

Test system: HEK293 ARE/NRF2-luciferase reporter
Assay: ARE/NRF2 luciferase reporter activity, fold change over DMSO control; higher = stronger NRF2/ARE reporter activation
Details: 10 µM; 24 h

Row | SMILES | ARE/NRF2 luciferase reporter activity
1 | C[C@@H]1CC[C@H]2[C@@H](C)C(=O)O[C@@H]3O[C@@]4(C)CC[C@@H]1[C@]32OO4 | inactive: 1.23
2 | N#CN=C(N)N | inactive: 0.954
3 | COc1cc(OC)c2c(c1)O[C@H](c1ccc(OC)c(OC)c1)[C@@H](O)C2 | inactive: 0.861
4 | S=C=NCc1ccccc1 | active: 3.52
5 | C=C1C[C@@H]2[C@H](CC[C@]3(C)C(=O)CC[C@@H]23)[C@@]2(C)C=CC(=O)C=C12 | active: 6.95
6 | COP(=S)(OC)Oc1ccc(SC)c(C)c1 | inactive: 1.34
7 | COc1cc2c(cc1OC)[C@@]13CCN4CC5=CCO[C@H]6CC(=O)N2[C@H]1[C@H]6[C@H]5C[C@H]43 | inactive: 0.814
8 | O=C(O)Cc1cnc[nH]1 | inactive: 0.911
9 | Cc1cc(O)ccc1Cl | inactive: 1.64
10 | CC[C@@H](c1cccc(O)c1)[C@@H](C)CN(C)C | inactive: 1.27
11 | COc1ccc(C=O)cc1 | inactive: 1.03
12 | COP(=O)(OC)C(O)C(Cl)(Cl)Cl (stereo not drawn) | active: 14.6
13 | CCCCCCCCC(=O)NCc1ccc(O)c(OC)c1 | inactive: 1.48
14 | Cn1c(CCCC(=O)O)nc2cc(N(CCCl)CCCl)ccc21 | inactive: 0.893
15 | Cc1ccc(O)cc1.Cc1cccc(O)c1.Cc1ccccc1O | inactive: 1.77
16 | CCOC(=O)CC(SP(=S)(OC)OC)C(=O)OCC (stereo not drawn) | inactive: 1.33
17 | O=C(CCCN1CCC2(CC1)C(=O)NCN2c1ccccc1)c1ccc(F)cc1 | inactive: 1.05
18 | C[C@]12CC[C@@H]3c4ccc(OC(=O)N(CCCl)CCCl)cc4CC[C@H]3[C@@H]1CC[C@@H]2O | inactive: 1.23
19 | NCCCNCCSP(=O)(O)O | inactive: 0.995

Row | SMILES | ARE/NRF2 luciferase reporter activity
20 | O=C(NC(=O)c1c(F)cccc1F)Nc1cc(Cl)c(OC(F)(F)C(F)C(F)(F)F)cc1Cl (stereo not drawn) | inactive: 1.88
21 | C=C[C@H]1CN2CC[C@H]1C[C@H]2[C@H](OC(=O)OCC)c1ccnc2ccc(OC)cc12 | inactive: 0.868
22 | CNc1ccccc1C(=O)O | inactive: 1.16
23 | O=c1[nH]c2ccccc2n1C1CCN(CCCC(c2ccc(F)cc2)c2ccc(F)cc2)CC1 | inactive: 1.23
24 | CCC1(CC)C(=O)C=CNC1=O | inactive: 0.634
25 | NCCc1c[nH]c2ccc(O)cc12 | inactive: 0.889
26 | CC(=O)O[C@H]1CC[C@]2(C=O)[C@H]3CC[C@]4(C)[C@@H](C5=CC(=O)OC5)CC[C@]4(O)[C@@H]3CC[C@]2(O)C1 | inactive: 0.024
27 | CN1C[C@H](CNC(=O)OCc2ccccc2)C[C@@H]2c3cccc4c3c(cn4C)C[C@H]21 | inactive: 0.261
28 | NCC(O)c1ccc(O)cc1 (stereo not drawn) | inactive: 0.855
29 | CC1(C)C(=O)C=C[C@]2(C)[C@H]3CC[C@@]4(C)[C@H](c5ccoc5)OC(=O)[C@H]5O[C@]54[C@]3(C)[C@H](O)C[C@@H]12 | active: 6.66
30 | NC(=O)CN1CCCC1=O | inactive: 1.02
31 | NCC(CC(=O)O)c1ccc(Cl)cc1 (racemic) | inactive: 0.909
32 | CCCN1C[C@H](CSC)C[C@@H]2c3cccc4[nH]cc(c34)C[C@H]21 | inactive: 1.07
33 | C[C@@H]1O[C@@H](O[C@H]2CC[C@]3(C=O)[C@H]4CC[C@]5(C)[C@@H](C6=CC(=O)OC6)CC[C@]5(O)[C@@H]4CC[C@]3(O)C2)[C@H](O)[C@H](O)[C@H]1O | inactive: 0.0169
34 | CC(O)CN1CCN(CC(=O)[O-])CCN(CC(=O)[O-])CCN(CC(=O)[O-])CC1.[Gd+3] (stereo not drawn) | active: 2.04
35 | CN(C)C(=O)Oc1cc(OC(=O)N(C)C)cc(C(O)CNC(C)(C)C)c1 (stereo not drawn) | inactive: 0.88
36 | COc1cccc(C=O)c1OC | inactive: 1.24
37 | COP(=S)(OC)Oc1cc(Cl)c(Cl)cc1Cl | inactive: 1.11
38 | c1ccc2c(c1)Nc1ccccc1S2 | active: 2.09
